Measured values taken from doi:10.1101/2020.07.17.209288 (2020).

Biological target: Spike protein S1 […] (Severe acute respiratory syndrome …)
Experiment: ELISA

B1: Neuropilin-1 ECD (protein)
chain: not shown
Kd: ~166 nM
